Screen size: about 150,000 compounds; about 540 (0.36%) showed an effect of 50% or more. The list shows a part of the results.
Test system: Plasmodium falciparum
Assay: Primary screen in NF54 nanoGlo assay, in single point, at 2uM, 72h; a lower Z score goes with more inhibition
Type: functional, Erythrocyte
Details: timepoint 72 hour

SMILES | % Inhibition [%] | Z score
O=C(CCC1CCCC1)Nc1ccc(Cl)cn1 | -15 | 2.05
CCCc1nc(N[C@@H](C)Cn2cncn2)c2cnn(C)c2n1 | -8 | 1.65
CN(C)CC1(O)CCC2(CCN(C(=O)c3n[nH]c4c3COc3ccccc3-4)CC2)CC1 | 5 | -0.71
CCCC(=O)N1CCNC(=O)[C@@H]1c1c(C)nc2ccccn12 | -15 | 1.61
CC(C)(C)OC(=O)N1CCC[C@H]1C(=O)NCCNc1ncccn1 | -4 | 0.46
Cn1nc2c(c1CNC(=O)c1ccc3c(c1)OCO3)CCC2 | 10 | -1.22
Cn1cc(C(=O)N2CC[C@H](Oc3ccc(-c4noc(C5CC5)n4)cc3)C2)cn1 | 33 | -3.74
CC(C)(CCNC(=O)[C@H]1CCO[C@@H]1c1cccnc1)C(F)(F)F | -8 | 1.03
COC(=O)c1cc(C)nc2c1c(=O)n(CC(=O)Nc1ccc(OC)cc1)c(=O)n2-c1ccccc1 | -7 | 0.89
Cc1noc(C)c1CS(=O)(=O)CCc1cc(Cl)c2c(c1)OCCCO2 | 2 | -0.18
CC(=O)c1ccc(NCN2C(=O)C(=O)c3ccccc32)cc1 | -10 | 1.82
Cc1noc(C)c1S(=O)(=O)N(C)Cc1noc2c1CCCC2 | -2 | 0.23
CCOCCCNc1nc(C)nc2onc(C)c12 | -10 | 1.12
COc1ccc(Oc2c(CN(C[C@@H](O)Cc3ccccc3)C(C)C)c(-c3ccccc3)nn2C)cc1 | -6 | 0.81
C[C@@](NC(=O)Nc1cnn(C(F)F)c1)(c1ccccc1)C(F)(F)F | -17 | 2.18
C[C@H]1CN(Cc2cnc3c(-c4ccccc4)cnn3c2)CCN1 | -6 | 0.99
COc1ccc([N+]2=C3CCCC(c4ccccc4)N3CC2(O)c2ccccc2)cc1 (stereo not drawn) | -4 | 0.52
C[C@@H](c1ncnn1CCc1ccccc1)N1CCN(C)CC1 | -9 | 0.98
CCCC(=O)N1C[C@H](c2nc(-c3ccc(F)cc3)no2)C2(CCOCC2)C1 | 1 | -0.2
COC(=O)N(C)CCCC(=O)Nc1ccccc1-c1ncc(C)o1 | 2 | -0.27
COCCN1C(=O)C[C@H](CNc2nc(N)nc3c2CCCC3)[C@H]1c1cnn(C)c1 | 2 | -0.4

SMILES | % Inhibition [%] | Z score
O=C(CCC(F)(F)F)N1CC[C@@]2(CCCN(CCC3CCCCC3)C2)C1 | -8 | 1.11
CCCc1cc(N2CC[C@H](NS(=O)(=O)N(C)C)[C@@H](O)C2)nc(C)n1 | -9 | 1.44
COCCc1nsc(N2CCNC(=O)CCN(C(=O)c3ccoc3Cl)CC2)n1 | -4 | 0.55
O=C(Nc1ccc2c(c1)OCO2)Nc1ccn(Cc2c(F)cccc2Cl)n1 | -4 | 0.43
Cc1c(C)c2c(c(C)c1NC(=O)c1cc3ccccc3o1)NC(=O)CO2 | 33 | -3.72
O=C1NCCC1C(=O)N1CC2CCC2(Nc2nc3ccccc3o2)C1 (stereo not drawn) | -4 | 0.42
COCc1n[nH]c(-c2cccc(NC(=O)CC[C@@H]3NC(=O)c4ccccc4NC3=O)c2)n1 | -11 | 1.35
CN(CCC(=O)N1CCCCC1)CCc1nccs1 | -3 | 0.26
Cn1nccc1C1=CCN(S(=O)(=O)CCC2CCCCC2)CC1 | -4 | 0.64
COc1ccc(Cn2c(N)c(C(=O)NCc3ccccc3Cl)sc2=S)cc1 | -4 | 0.51
CN(C)C(=O)NC[C@@H]1C[C@H](F)CN1C(=O)C(C)(C)Oc1ccc2c(c1)CCC2 | 3 | -0.66
CCc1ccc(NC(=O)Cn2cc(-c3nnc(C)o3)ccc2=O)cc1 | -1 | 0.12
CCCCn1ccnc1-c1cccc(NC(=O)Cc2cccnc2)c1 | -8 | 1.25
O=C(Nc1cccs1)N1CCC(c2nnc(-c3ccsc3)o2)CC1 | -18 | 2.08
Cc1cc(C(=O)NCC2C3Cc4ccccc4C23)cnn1 (stereo not drawn) | -2 | 0.19
COc1cc(N(C)Cc2nc(-c3ccccn3)no2)ncn1 | -14 | 1.32
Cc1nc(N[C@H]2CCCn3ncnc32)nc(C)c1CC(C)C | -11 | 1.66
O=C(Nc1cc(O)cc(C(=O)O)c1)OC1CCCC1 | -2 | 0.27
CNC(=O)[C@H]1CCCN(C(=O)c2ccc3cncn3c2C)C1 | -12 | 1.07
CCc1ccc(Cn2ncnc2[C@H]2CCOC2)cc1 | 0 | 0
Cc1cc(N(C)CC(=O)Nc2cccc(Cl)c2)ncn1 | 5 | -0.55

SMILES | % Inhibition [%] | Z score
C[C@]1(O)CCC12CCN(C(=O)Cc1cccc(Cl)c1)CC2 | 0 | -0.03
O=C(Cn1cc(-c2ccc(F)cc2)cn1)NCc1cn(-c2ccncc2)nn1 | 8 | -1.03
O=C(NCc1ccc(Cl)cc1)c1cnco1 | 3 | -0.56
Cn1ccc(C2CCN(CC(=O)Nc3cnccn3)CC2)n1 | 12 | -1.37
Cc1cccc(N2CCC(NC3CCN(Cc4ccco4)CC3)CC2)c1C | -15 | 1.45
C[C@@H](CCNS(=O)(=O)c1c(Cl)cc(F)cc1Br)CC(=O)O | 32 | -1.75
CC(C)(C)OC(=O)NCc1cccc(NC(=O)NCc2ccoc2)c1 | 1 | -0.21
CC[C@](C)(Nc1ccc2c(c1)OCCO2)c1nnnn1-c1ccc(OC)cc1 | -8 | 1.18
O=S(=O)(c1cccc(F)c1F)N1CCC[C@H]1c1ccccn1 | 4 | -0.68
O=C(CN1C(=O)CCC1=O)N1CC(c2nc(-c3cccc(Cl)c3)no2)C1 | -9 | 1.71
O=C(NCC1CCN(c2cnsn2)CC1)c1ccccc1 | -13 | 1.42
COCCn1c(Cc2c[nH]c3ccccc23)nnc1N1CCC[C@@H](CN2CCOCC2)C1 | 10 | -1.87
CCN1CCCN(C(=O)[C@@H]2CC(C(C)C)=NO2)CC1 | -11 | 1.38
CC(C)(O)CCc1ccc(C(=O)N2CCC(c3nnn[nH]3)CC2)cc1 | -4 | 0.58
CN(C(=O)c1cc(Cl)cc(F)c1N)c1cnn(C)c1 | -3 | 0.4
Clc1ccc2nc3c(c(Nc4ccc(Oc5ccccc5)cc4)c2c1)CCCC3 | -2 | 0.31
O=C(CCc1cc2n(n1)CCNC2)NCc1scnc1-c1ccccc1 | -13 | 1.69
Brc1cncc(N2CCC3(CC2)OCCO3)c1 | -1 | 0.22
Cc1cccc2nnc(N3CCN(C(=O)c4ccco4)CC3)n12 | 28 | -3.14
Cn1cnc2cc(-c3noc(-c4cccc(F)c4)n3)ccc21 | -9 | 1.4
O=C(C1=CCCCC1)N1CCC(C(=O)N2CCCCCC2)CC1 | -16 | 1.91

SMILES | % Inhibition [%] | Z score
CCOc1ccc(C(=O)Nc2ccccc2-c2csc(C)n2)nn1 | -11 | 2.09
COc1ccc(Nc2nonc2-c2noc(NCc3ccc(OC)c(OC)c3)n2)cc1 | -18 | 2.26
Cn1cc(CC(=O)N(CC(=O)Nc2ccc(F)cc2)C(C)(C)C)cn1 | -9 | 1.28
O=C(O)C[C@@](O)(c1nccn1Cc1ccccc1)C(F)(F)F | 4 | -0.57
CCN1CCn2cc(C(=O)NCCN3CCN(c4ccccc4F)CC3)nc2C1=O | 10 | -1.32
C=C(C)CN(CC)C(=O)Cc1cccc(F)c1 | -16 | 1.72
CC(C)C(=O)N(Cc1nccn1Cc1ccc(Cl)cc1Cl)C1CCCCC1 | 1 | -0.1
Cc1cccc(NC(=O)Cn2nc(C(=O)N3CCOCC3)c3ccccc32)c1C | 0 | 0
COC1CCCN(C(=O)CC2(c3ccc(-c4ccccc4)cc3)CC(=O)N(C3CC3)C2=O)C1 (stereo not drawn) | -5 | 0.67
Cc1ccc(Cn2c(=O)c(C(=O)NCC3CC3)nn(-c3ccc(C(F)(F)F)cc3)c2=O)cc1 | -8 | 0.8
O=S(=O)(Cc1cccc(C(F)(F)F)c1)Nc1cnccn1 | 13 | -1.51
Cc1cnc(N2CCn3nc(CNc4cnccn4)cc3C2)nc1N(C)C | -13 | 1.32
C=CCn1ncc(-c2nc3c(cnn3Cc3cccc(Cl)c3)[nH]2)c1C | 9 | -1.2
O=C(Nc1ccc(Cl)c(F)c1)N1CCC[C@H](C(=O)N2CCCC2)C1 | -11 | 1.4
Nc1nc(NCCOCc2ccc(Cl)cc2)cc(C2CC(O)C2)n1 (stereo not drawn) | 5 | -0.97
Cc1ccc(NC(=O)c2cc3n(n2)CCCC3)c(Cl)c1 | -2 | 0.22
CN(C)C(=O)NCc1cc2n(n1)CCCN(C/C=C/c1ccc(F)cc1)C2 | 7 | -0.67
Cc1nc(N(C)C)sc1CN1CCC(n2cc(Cl)cn2)CC1 | -8 | 1.23
Cc1cscc1C(=O)N[C@H](C#N)c1ccsc1 | -10 | 1.05
COc1cccc(C2CN(C(=O)c3ccc4c(c3)OCO4)CC2C(=O)NCC(C)C)c1 (stereo not drawn) | -18 | 1.9
COC(=O)c1cn(Nc2nc3ccccc3[nH]2)cc(C(=O)OC)c1=O | -10 | 1.43

Source: ChEMBL document CHEMBL4888484, “Replenishing the malaria drug discovery pipeline: Screening and hit evaluation of the MMV Hit Generation Library 1 (HGL1) against asexual blood stage Plasmodium falciparum ,using a nano luciferase reporter read-out” (2022)
